Test results: the supplement of paper PMC10338343
± gives the standard deviation. Only a part is listed here, and it is no random draw.

Tested on: MIWI (PIWIL1) piRISC loaded with L1MC piRNA (30 nt)
Experiment: pre-steady-state target cleavage rate (min^-1); MIWI and MILI are mouse PIWI proteins and EfPiwi is from a freshwater sponge; tags in brackets are library labels; higher = faster piRNA-guided slicing of the target
Conditions: guide: L1MC piRNA 5'p-UAACUAAAUACUAUGCAAGCUGUAGGUCCU
Outline: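 At 33 °C in HEPES–potassium acetate buffer, a transcribed, DNA-blocked target RNA library […] was exposed for 0–8 or 0–960 min to 1 nM active affinity-purified piRISC carrying a single synthetic guide, with or without 500 nM GTSF1 partner protein. Uncleaved targets were sequenced and normalised to depth and to weakly complementary targets. With three trials pooled and k3 capped at 0.0001 min^-1, a burst-and-steady-state fit produced the pre-steady-state cleavage rate.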

[1] = auxiliary factor: 500 nM mouse GTSF1
[2] = auxiliary factor: none (no GTSF1)
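Further: 1 nM active piRISC with 0.1 nM target library at 33 °C single turnover.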

UCCUCGUACAGCUUGCAUACUAUUUAGUUA
pre-steady-state target cleavage rate [1]: 0.365 ± 0.014 | pre-steady-state target cleavage rate [2]: 0.0348 ± 0.0084

UCGACCUACAGCUUGCAUAGUAUUUUGUAA
pre-steady-state target cleavage rate [1]: 0.412 ± 0.037 | pre-steady-state target cleavage rate [2]: 0.0461 ± 0.01

UCCUGCUAGAGGUUGCAUAGUAUUUAGUUA
pre-steady-state target cleavage rate [1]: 0.551 ± 0.041 | pre-steady-state target cleavage rate [2]: 0.00669 ± 0.0016

UCCUGGAACAGCUUGCAUAGUAUUUUCAUA
pre-steady-state target cleavage rate [1]: 0.193 ± 0.034 | pre-steady-state target cleavage rate [2]: 0.0038 ± 0.0023

UCGACCUAGUGCUUGCAUAGUAUUUAGAAA
pre-steady-state target cleavage rate [1]: 0.139 ± 0.019 | pre-steady-state target cleavage rate [2]: 0.00515 ± 0.0018

UCCUGGAUCAGGUUGCAUAGUAUUUACUUA
pre-steady-state target cleavage rate [1]: 0.162 ± 0.028 | pre-steady-state target cleavage rate [2]: 0.00557 ± 0.0024

UCCACCUACAGCUUGCAUAGUAUUUACUUA
pre-steady-state target cleavage rate [1]: 0.378 ± 0.044 | pre-steady-state target cleavage rate [2]: 0.0369 ± 0.0085

UCCUGGAUCAGCUUGCAUACUUUUUAGUUA
pre-steady-state target cleavage rate [1]: 0.014 ± 0.0033 | pre-steady-state target cleavage rate [2]: 0.00335 ± 0.0016

UCCUGGAUCAGGUUGCAUAGUAUAUAGUUA
pre-steady-state target cleavage rate [1]: 0.212 ± 0.025 | pre-steady-state target cleavage rate [2]: 0.00568 ± 0.0023

AGGACCUUCAGCUUGCUUAGUAUUUAGUUA
pre-steady-state target cleavage rate [1]: 1.44 ± 0.055 | pre-steady-state target cleavage rate [2]: 0.0546 ± 0.01

UGGACCUACAGCUUGCAUAGUACUUUAGUUA
pre-steady-state target cleavage rate [1]: 0.645 ± 0.046 | pre-steady-state target cleavage rate [2]: 0.0182 ± 0.0046

UGCACCUACAGCUUGCAUAGUAUUUAGUUA
pre-steady-state target cleavage rate [1]: 1.22 ± 0.11 | pre-steady-state target cleavage rate [2]: 0.0865 ± 0.017

UCCUGCUACAGGAAGCAUAGUAUUUAGUUA
pre-steady-state target cleavage rate [1]: 0.815 ± 0.072 | pre-steady-state target cleavage rate [2]: 0.00481 ± 0.0021

UGGUGCUACAGCUUGCAUAGUAUUUAGUAA
pre-steady-state target cleavage rate [1]: 0.607 ± 0.063 | pre-steady-state target cleavage rate [2]: 0.0318 ± 0.0064

UCCUGCUACAGCUUGCAUAGUAUUUAGUA
pre-steady-state target cleavage rate [1]: 0.422 ± 0.071 | pre-steady-state target cleavage rate [2]: 0.00464 ± 0.0019

UCGAGGAACAGCUUGCAUAGUAUUUAGUUA
pre-steady-state target cleavage rate [1]: 1.02 ± 0.076 | pre-steady-state target cleavage rate [2]: 0.057 ± 0.011

UCCACCUACAGCUUGCAUAGAAUUAAGUUA
pre-steady-state target cleavage rate [1]: 0.267 ± 0.029 | pre-steady-state target cleavage rate [2]: 0.00783 ± 0.0026

UCCUGGAUGUCCUUGCAUAGUAUUUAGUUU [g2:g19:cont:t1U]
pre-steady-state target cleavage rate [1]: 0.171 ± 0.028 | pre-steady-state target cleavage rate [2]: 0.00862 ± 0.0025

UCCUGGAUGAGCUUGCAAAGUAAUUAGUUA
pre-steady-state target cleavage rate [1]: 0.0947 ± 0.0094 | pre-steady-state target cleavage rate [2]: 0.00912 ± 0.0032

UCCUGGUACAGCUUGCAUUGUAUUUAGAUA
pre-steady-state target cleavage rate [1]: 0.0655 ± 0.017 | pre-steady-state target cleavage rate [2]: 0.00831 ± 0.0026
